{"source": "the RNAGym collection of RNA variant scans (doi:10.1073/pnas.2313332121)", "parents": {"B1": {"name": "TPR 5TU (parent)", "chain": "GGAUCUUCUCGAUCUAACAAAAAAGACAAAUCUGCCACAAAGCUUGAGAGCAUCUUCGGAUGCAGAGGCGGCAGCCUUCGGUGGCGCGAUAGCGCCAACGUUCUCAACUAUGACACGCAAAACGCGUGCUCCGUUGAAUGGAGUUUAUCAUG"}}, "note": "Variants at the floor of the assay are shown more often than the library holds them."}
{"variants_of": "B1", "test": "polymerase ribozyme fitness, log enrichment relative to wild type (log ratio); higher = more active; in vitro selection for triplet polymerase activity", "procedure,_shortened": "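Input and output libraries were sequenced on Illumina after a single in vitro selection round, run in triplicate on PCR-built, transcribed mutant libraries of each subunit of a heterodimeric triplet polymerase ribozyme. Selection annealed libraries to a biotinylated primer, the partner subunit and triplets, incubated them frozen at −7 °C, then gel-excised extended constructs for streptavidin-bead capture and RT-PCR. Genotypes with ≥10 input reads and ≥1 read per output were kept. Fitness is the logarithm, taken in base 2, of genotype enrichment divided by wild-type enrichment, using inverse-variance-weighted replicate averages.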"}
{"variant": "GGAUCUUCUCGAUCUAACAAAAAAGACAAAUCUGCCACAAAGCUUGAGAGCAUCUUCGGAUGCAGAGGCGGCAGCCUUCGGUGGCGCGAUAGCGCCAACGUUCUCAACUAUGACACGGAAACCGCGUGCUCCGUUGAAUGCAGUUUAUCAUG", "note": "[C118G A122C G141C]", "polymerase ribozyme fitness (log ratio)": -2.43}
{"variant": "GGAUCUUCUCGAUCUAACAAAAAAGACAAAUCUGCCACAAAGCUUGAGAGCAUCUUCGGAUGCAGAGGCGGCAGCCUUCGGUGGCGCGAUAGCGCCAACGUUCUCAACUAUGACACGCAAAGCGCGUGCUCCGUUGAAUGGAGGUUAUCAUG", "note": "[A122G U144G]", "polymerase ribozyme fitness (log ratio)": 0.851}
{"variant": "GGAUCUUCUCGAUCUAACAAAAAAGACAAAUCUGCCACAAAGCUUGAGAGCAUCUUCGGAUGCAGAGGCGGCAGCCUUCGGUGGCGCGAUAGCGCCAACGUUCUCAACUAUGACACGCACAACGCGUGCUCCGUUUAAUCGAGUUUAUCAUG", "note": "[A120C G136U G140C]", "polymerase ribozyme fitness (log ratio)": -4.19}
{"variant": "GGAUCUUCUCGAUCUAACAAAAAAGACAAAUCUGCCACAAAGCUUGAGAGCAUCUUCGGAUGCAGAGGCGGCAGCCUUCGGUGGCGCGAUAGCGCCAACGUUCUCAACUAUGACACGCAAAACGGGUACUCCGUUGAAUGGAGUUUAACAUG", "note": "[C125G G128A U148A]", "polymerase ribozyme fitness (log ratio)": "≤ -4.2"}
{"variant": "GGAUCUUCUCGAUCUAACAAAAAAGACAAAUCUGCCACAAAGCUUGAGAGCAUCUUCGGAUGCAGAGGCGGCAGCCUUCGGUGGCGCGAUAGCGCCAACGUUCUCAACUAUGACACGCAAAACGUGUGCUCCGUUGAAUGCAGUUUAUCAUG", "note": "[C125U G141C]", "polymerase ribozyme fitness (log ratio)": -3.85}
{"variant": "GGAUCUUCUCGAUCUAACAAAAAAGACAAAUCUGCCACAAAGCUUGAGAGCAUCUUCGGAUGCAGAGGCGGCAGCCUUCGGUGGCGCGAUAGCGCCAACGUUCUCAACUAUGACACGCAAAACUCGUGCUCCGUUGAAUGGCGUUUAUCAUG", "note": "[G124U A142C]", "polymerase ribozyme fitness (log ratio)": -1.75}
{"variant": "GGAUCUUCUCGAUCUAACAAAAAAGACAAAUCUGCCACAAAGCUUGAGAGCAUCUUCGGAUGCAGAGGCGGCAGCCUUCGGUGGCGCGAUAGCGCCAACGUUCUCAACUAUGACACGCUAAACGCGCGCUCCGUUGAAUGGAGUUUAUCAUG", "note": "[A119U U127C]", "polymerase ribozyme fitness (log ratio)": -2.06}
{"variant": "GGAUCUUCUCGAUCUAACAAAAAAGACAAAUCUGCCACAAAGCUUGAGAGCAUCUUCGGAUGCAGAGGCGGCAGCCUUCGGUGGCGCGAUAGCGCCAACGUUCUCAACUAUGACACGCAAAACACGUGCUCCGUUGGAUGGAGUUUAUCAUG", "note": "[G124A A137G]", "polymerase ribozyme fitness (log ratio)": -1.05}
{"variant": "GGAUCUUCUCGAUCUAACAAAAAAGACAAAUCUGCCACAAAGCUUGAGAGCAUCUUCGGAUGCAGAGGCGGCAGCCUUCGGUGGCGCGAUAGCGCCAACGUUCUCAACUAUGACACGCACAACGGGUGCUCCUUUGAAUGGAGUUUAUCAUG", "note": "[A120C C125G G133U]", "polymerase ribozyme fitness (log ratio)": -3.85}
{"variant": "GGAUCUUCUCGAUCUAACAAAAAAGACAAAUCUGCCACAAAGCUUGAGAGCAUCUUCGGAUGCAGAGGCGGCAGCCUUCGGUGGCGCGAUAGCGCCAACGUUCUCAACUAUGACACGCAAUACGCGUGCUCCGUUGAAUGGAGUCUAUCAUG", "note": "[A121U U145C]", "polymerase ribozyme fitness (log ratio)": 1.15}
{"variant": "GGAUCUUCUCGAUCUAACAAAAAAGACAAAUCUGCCACAAAGCUUGAGAGCAUCUUCGGAUGCAGAGGCGGCAGCCUUCGGUGGCGCGAUAGCGCCAACGUUCUCAACUAUGACACGCAAACCGCAUGCUCCGUUGAAUGGAGUUUAUCAUG", "note": "[A122C G126A]", "polymerase ribozyme fitness (log ratio)": -0.186}
{"variant": "GGAUCUUCUCGAUCUAACAAAAAAGACAAAUCUGCCACAAAGCUUGAGAGCAUCUUCGGAUGCAGAGGCGGCAGCCUUCGGUGGCGCGAUAGCGCCAACGUUCUCAACUAUGACACGCAAAGCGCGAACUCCGUUGAAUGGAGUUUAUCAUG", "note": "[A122G U127A G128A]", "polymerase ribozyme fitness (log ratio)": -4.01}
{"variant": "GGAUCUUCUCGAUCUAACAAAAAAGACAAAUCUGCCACAAAGCUUGAGAGCAUCUUCGGAUGCAGAGGCGGCAGCCUUCGGUGGCGCGAUAGCGCCAACGUUCUCAACUAUGACACGCAAAAUACGUGCUCCGUUGAAUGGAGCUUAUCAUG", "note": "[C123U G124A U144C]", "polymerase ribozyme fitness (log ratio)": 0.0575}
{"variant": "GGAUCUUCUCGAUCUAACAAAAAAGACAAAUCUGCCACAAAGCUUGAGAGCAUCUUCGGAUGCAGAGGCGGCAGCCUUCGGUGGCGCGAUAGCGCCAACGUUCUCAACUAUGACACUCAAAACGCGUGCUCCGUUGAAUGGAUUUUAUCAUG", "note": "[G117U G143U]", "polymerase ribozyme fitness (log ratio)": -2.57}
{"variant": "GGAUCUUCUCGAUCUAACAAAAAAGACAAAUCUGCCACAAAGCUUGAGAGCAUCUUCGGAUGCAGAGGCGGCAGCCUUCGGUGGCGCGAUAGCGCCAACGUUCUCAACUAUGACACGUAAAACGCGUGCUCCGUUGAAUGGAGUUUAGCAUG", "note": "[C118U U148G]", "polymerase ribozyme fitness (log ratio)": -3.62}
{"variant": "GGAUCUUCUCGAUCUAACAAAAAAGACAAAUCUGCCACAAAGCUUGAGAGCAUCUUCGGAUGCAGAGGCGGCAGCCUUCGGUGGCGCGAUAGCGCCAACGUUCUCAACUAUGACACGUAAAACGCGUGCUCCGUUGAAUGGAGUUUAACAUG", "note": "[C118U U148A]", "polymerase ribozyme fitness (log ratio)": -2.79}
{"variant": "GGAUCUUCUCGAUCUAACAAAAAAGACAAAUCUGCCACAAAGCUUGAGAGCAUCUUCGGAUGCAGAGGCGGCAGCCUUCGGUGGCGCGAUAGCGCCAACGUUCUCAACUAUGACACGCCAAACGCGUGCUCCGUUGAAUGGAAUUUAUCAUG", "note": "[A119C G143A]", "polymerase ribozyme fitness (log ratio)": -0.422}
{"variant": "GGAUCUUCUCGAUCUAACAAAAAAGACAAAUCUGCCACAAAGCUUGAGAGCAUCUUCGGAUGCAGAGGCGGCAGCCUUCGGUGGCGCGAUAGCGCCAACGUUCUCAACUAUGACACGGGAAACGCGUGCUCCGUUGAAUGGAGUUUAUCAUG", "note": "[C118G A119G]", "polymerase ribozyme fitness (log ratio)": 0.312}
{"variant": "GGAUCUUCUCGAUCUAACAAAAAAGACAAAUCUGCCACAAAGCUUGAGAGCAUCUUCGGAUGCAGAGGCGGCAGCCUUCGGUGGCGCGAUAGCGCCAACGUUCUCAACUAUGACACGUAAAACGCGUGCUCCGUUGAAUGGAGUUCAUCAUG", "note": "[C118U U146C]", "polymerase ribozyme fitness (log ratio)": -1.27}
